# From PubChem BioAssay AID651820 (National Center for Advancing Translational Sciences (NCATS), 2012)
# In all, about 340,000 compounds went through this assay and about 12,000 (3.5%) were called active. The inconclusive results got no clear call from the source; some entries with a clear call stand among them for comparison. The call rests on the fitted dose curve; in most records, active means well fitted inhibition curve with a large enough effect; inconclusive means small, poorly fitted or top-dose-only effect, or another doubt; inactive means no such curve, though single readings can be large or run the other way. No potency is given beside an inconclusive call; the fits are too rough.
# Assay: qHTS Assay for Inhibitors of Hepatitis C Virus (HCV)
# Conditions: Huh7.5.1 HCVcc-Cre (HCVcc is cell-culture hepatitis C virus) infection, luciferase reporter, 44 h; activity change, negative = inhibition: at 41.8 µM (top of the series) unless noted
# Procedure, shortened: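 Luciferase read-out (15 sec integration) after a 15 min room-temperature substrate step quantifies HCVcc-Cre infection. Cells, 1,000 per well, had compound added 4 h post-plating, then virus at ~0.5 moi, and were cultured 44 h.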
# On the % scale 0 is the no-effect control and ±100 the full control effect; potency means the concentration at half of the fitted maximal effect; tags describe the fitted curve by direction and shape.
Structure (SMILES),Potency,"activity change, negative = inhibition"
CC(C)n1c(SCC(=O)N2c3ccccc3Sc3ccccc32)nc2c1c(=O)n(C)c(=O)n2C,active: 11.2 µM,–
O=C(CCc1ccc(Oc2cc([N+](=O)[O-])cc([N+](=O)[O-])c2)cc1)N1CCCCCC1,"inconclusive [inhibitor, single point]",–
C/C(=N\NC(=O)C1CCCC1)c1ccc(C(C)C)cc1,"inconclusive [inhibitor, single point]",–
COc1ccc(/C=C2/SC(=O)N(CCNC(=O)C3CCCN3C(=O)c3cccs3)C2=O)cc1 (stereo not drawn),"inconclusive [inhibitor, partial curve]",–
Nc1ccc(Cc2ccc(N)c(Cl)c2)cc1Cl,"inconclusive [inhibitor, partial curve, poor fit]",–
CC(=O)C[C@H](O)CC(=O)[C@H]1OC(=O)CCCCCCCc2ccccc21,"inconclusive [inhibitor, partial curve, poor fit]",–
N#Cc1ccc(-c2csc(NNC(=O)c3ccc(Br)cc3)n2)cc1,active: 8.91 µM,–
COc1ccccc1Nc1nc2ccccc2n2cnnc12,"inconclusive [inhibitor, partial curve]",–
C=CCC1(CC=C)CCCN1C(=O)c1cc(COc2ccc(F)c(F)c2)on1,"inconclusive [inhibitor, single point]",–
CCC(CO)Oc1cc(NCc2ccc(C)cc2)c2ncn(C(C)C)c2c1 (stereo not drawn),"inconclusive [inhibitor, single point]",–
O=C(N/N=C/c1ccc(Cl)c([N+](=O)[O-])c1)c1cc(-c2ccc3c4c(cccc24)CC3)n[nH]1,–,inactive: -8.11%
CCOc1cc(CNn2cnnc2)cc(Cl)c1OCC(=O)NC(C)(C)C,–,inactive: -11.8%
CNc1nc2c(c(=O)n(C)c(=O)n2C)n1CCCc1ccccc1,active: 11.2 µM,–
Cc1ccc(OCCn2c(SCCO)nc3c(N)ncnc32)cc1,"inconclusive [inhibitor, single point]",–
COc1ccc(C(=O)c2ccc(C)cc2)c(OC)c1OC,"inconclusive [inhibitor, partial curve]",–
COc1ccc(Cl)cc1C(=O)Nc1ccncc1,"inconclusive [inhibitor, single point]",–
COc1cc(/C=C/C(=O)OCC(=O)N2c3ccccc3NC(=O)C2(C)C)cc(OC)c1OC,"inconclusive [inhibitor, partial curve]",–
O=C1CSc2ccc(S(=O)(=O)N3CCN(c4ccccc4F)CC3)cc2N1,"inconclusive [inhibitor, single point]",–
